According to PubChem BioAssay AID493208 (National Center for Advancing Translational Sciences (NCATS), 2011):
In all, about 44,000 compounds went through this assay and about 340 (0.77%) were called active. Roughly 5% stayed inconclusive and do not appear here. The call rests on the fitted dose curve; in most records, active means well fitted inhibition curve with a large enough effect; inconclusive means small, poorly fitted or top-dose-only effect; inactive means flat fitted curve, though single readings scatter. This is one part of the list.

Experiment: Acumen qHTS Assay for Inhibitors of the mTORC1 Signaling Pathway in MEF (Tsc2-/-, p53-/-) Cells: Sytravon; further: nearly all actives have a fitted effect of over 50% in size;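 on activity change, negative = inhibition: plate controls were DMSO for no effect and rapamycin for full effect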
Conditions: phospho-rpS6 immunofluorescence/PI, 24 h; series mostly up to 38.3 µM; activity change, negative = inhibition: at the top concentration
In short: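 Immunofluorescence of rpS6 phosphorylation in Tsc2-/-, p53-/- MEFs after 24 h compound exposure, normalized to propidium iodide signal. Activity is expressed as % positive cells, thresholded with 7.5 nM rapamycin.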
Potency means the concentration at half of the fitted maximal effect.

Activity change, negative = inhibition, inactive:
COc1ccccc1Nc1cc(C(=O)NC2CCC(C)CC2)c2ccccc2n1 (centres undefined) -4.63%
CCN(C(=O)Nc1cn(CC(C)C)c(=O)c2ccccc12)c1cc(C)ccc1C 6.41%
Cc1ccc2nc(Nc3ccc(C)c(F)c3)c3nncn3c2c1 -4.46%
Cc1ccc(CNC(=O)CCn2cnc3ccccc3c2=O)cc1 -12.8%
Cc1c(Cl)cccc1NC(=O)C1CCN(c2ncnc3c2nc2n3CCCCC2)CC1 0.222%
COc1ccccc1CN1C(=O)CN(C2CCCCCC2)C(=O)C1c1ccc(F)cc1 (centres undefined) 8.65%
CCn1nc(C)c(CCN(C)C(=O)Nc2cc(OC)c(OC)c(OC)c2)c1C 0%
CCOC(=O)c1cnn(-c2ccc(C(=O)Nc3cccc(C(C)=O)c3)cc2)c1N -2.31%
Cc1ccc(N2CC(NC(=O)c3ccc(S(=O)(=O)N4CCOCC4)cc3)CC2=O)cc1 (centres undefined) -1.22%
COc1ccc2cc(C(=O)NCc3ccc4c(c3)CCN4C(=O)c3ccc(F)cc3)[nH]c2c1 -0.724%
O=C(COCc1cc(-c2cccs2)on1)N1CCN(c2cccc(Cl)c2)CC1 -7.63%
Fc1cccc(-c2nnn3c2nc(NCCc2ccccc2)c2ccccc23)c1 0.674%
O=C(CCn1c(=O)c2cccn2c2cccnc21)N1CCN(c2ccccc2F)CC1 4.59%
COc1cc(C)cc2oc(=O)c(CC(=O)NCCc3ccc(Cl)cc3)c(C)c12 1.15%
CC(C)CNC(=O)N1[C@H](c2cccs2)[C@@H](C)C(=O)[C@@H](C)[C@@H]1c1cccs1 -0.707%
Cc1cccc(OCC(=O)Nc2ccc(-c3nc4ccccc4o3)cc2)c1C -3.25%
COc1ccc(C)cc1NS(=O)(=O)c1c(C(=O)N2CCCCCC2)c(C)n(C)c1C -0.0296%
CC(C)OCCCNC(=O)Cn1ccc2cc(S(=O)(=O)N3CCCCCC3)ccc21 0.613%
COc1ccc(CC(=O)NCCc2csc(-c3cccc(C)c3)n2)cc1 -6.61%
Cc1ccc(CCNS(=O)(=O)c2ccc3c(c2)CC(C)N3C(=O)C2CCC2)cc1 (centres undefined) -17.7%
Cc1oc(-c2ccccc2Cl)nc1Cn1c(SCc2cccc(F)c2)nc2cccnc21 2.2%
Cc1nc(-c2ccccc2)sc1-c1ccc(SCC(=O)NCc2ccc(Cl)cc2)nn1 -4.31%
CC(=O)c1cccc(NC(=O)CC(c2ccc(C)cc2)N2Cc3ccccc3C2=O)c1 (centres undefined) -7.72%
CC(CNC(=O)c1nnc(Cc2ccc(F)cc2)o1)c1ccccc1 (centres undefined) -21.8%
Cc1ccc(-n2nc3c(=O)n(CC(=O)NCCC(C)C)nc(C)c3c2C)cc1 -9.77%
COc1cc2ncc(C(=O)c3ccc(C)cc3)c(N3CCCCC3)c2cc1OC -5.95%
COCCCNC(=O)Cn1c(=O)nc(-c2ccccc2)c2ccccc21 9.62%
COc1ccc(Cn2cc(C(=O)c3ccc(C)c(C)c3)c(=O)c3ccccc32)cc1 -1.9%
CCCCC12CN3CC(C)(CN(C1)C3c1ccc(O)c(OC)c1)C2=O (centres undefined) 1.25%
CCOc1ccc(CCNC(=O)c2cc(C)nc3c2c(C)nn3-c2cccc(F)c2)cc1 6.77%
Cc1cccn2c(=O)c(C(=O)NCCc3ccccc3)cnc12 -4.43%
O=C(Cn1cc(S(=O)(=O)Cc2cccc(Cl)c2)c2ccccc21)Nc1ccccc1Cl -4.26%
COc1cccc(NC(=O)CSc2nccn2C2CCCC2)c1 -1.43%
O=C(NC1CCCC1)c1ccc2c(c1)N(Cc1ccccc1)C(=O)c1ccccc1S2 9.11%
CC1CCN(c2nc3ccc(C(=O)NCc4ccccc4Cl)cc3s2)CC1 1.63%
COc1cccc(CNC(=O)Cc2c(C)c3ccc(OC)c(C)c3oc2=O)c1 -1.37%
Cc1ccc(F)cc1NC(=O)Cn1c(C)cc(C)c(C#N)c1=O -14.6%
O=C(NCc1cccc(Br)c1)c1ccc(NC(=O)N2CCCCc3ccccc32)cc1 -12.6%
COc1ccc(N2CCN(Cc3nc4c(c(=O)[nH]c(=O)n4C)n3CC(C)C)CC2)cc1 -17.2%
Cc1ccc(S(=O)(=O)c2nnn3c2nc(NCCc2ccccc2)c2sccc23)cc1 -1.42%
CC(=O)c1ccc(NS(=O)(=O)c2ccc3[nH]c4c(c3c2)CCCC4)cc1 -4.48%
Cc1ccccc1C(=O)Nc1c(C)nc2ccccn2c1=O 0%
Cc1ccc(CNC(=O)c2c[nH]n3c(=O)c(Cc4ccc(Cl)cc4)c(C)nc23)cc1 -19.3%
CCc1ccc(S(=O)(=O)c2cn(Cc3ccccc3F)c3cc(OC)c(OC)cc3c2=O)cc1 -8.34%
CCOc1ccc(C2c3[nH]c4ccccc4c3CCN2C(=O)CSCc2ccc(F)cc2)cc1 (centres undefined) -7.86%
O=C(NCCc1ccccc1)c1nn(-c2ccc(F)cc2)nc1CO -13.7%
Cc1cccc(CNC(=O)c2ccc3nc(Cc4ccccc4)oc3c2)c1 -15.2%
COc1ccc(NC(=O)CSc2nnc(NC(=O)NC3CCCCC3)s2)cc1OC 2.08%
Cc1cc(S(=O)(=O)NCC(c2ccco2)S(=O)(=O)c2cccs2)ccc1F (centres undefined) -12.6%
Cc1cccc(NC(=O)CS(=O)(=O)c2cccc3nsnc23)c1 -0.229%
CCOc1ccc(CCNC(=O)CCCc2nnc3n(CC)c(=O)c4sccc4n23)cc1OCC 3.43%
CCOc1ccc(NC(=O)CSc2nnc(-c3ccc(OCC)cc3)o2)cc1 0.756%
Cc1ccc(NC(=O)Cn2c(=O)n(Cc3nc(-c4ccccc4)no3)c(=O)c3ccccc32)cc1C -5.19%
COC(=O)c1ccccc1NC(=O)CSc1nc(=O)cc(N)n1-c1ccccc1 -0.256%
Cc1coc2cc3oc(=O)c(CC(=O)NCc4cccc(Cl)c4)c(C)c3cc12 2.88%
Cc1ccc(CNC(=O)c2c(-c3ccccc3Cl)noc2C)o1 0%
COc1ccc(CNC(=O)Nc2ccc3c(c2)N(C)C(=O)c2ccccc2S3)cc1OC -10.6%
COc1cc(OC)c(NC(=O)CN2CCCN(Cc3ccccc3C)S2(=O)=O)cc1Cl 2.37%
Cc1ccc(-n2nnnc2CNC(=O)c2ccc(F)cc2)cc1C 0%
COc1ccccc1-c1nn2c(=O)cc(CN3CCN(S(=O)(=O)c4ccc(C)cc4)CC3)nc2s1 0.295%
CCOC(=O)c1ccc(NC(=O)C2Cc3ccccc3C(=O)O2)cc1 (centres undefined) -8.39%
Cc1cccc(-c2noc(CNC(=O)c3ccco3)n2)c1 8.32%
CC(=O)Nc1ccc(C)cc1-c1nc2ccccc2n(CC(=O)c2ccc(Cl)cc2)c1=O 5.54%
COC(=O)c1cc2oc3ccccc3c2n1CC(=O)Nc1cc(OC)cc(OC)c1 -0.246%
CC(=O)N(Cc1cccnc1)c1nc2ccc(F)cc2s1 -0.0506%
COc1cccc2cc(-c3cn4c(n3)sc3cc(F)ccc34)c(=O)oc12 1.76%
COc1ccc(C(=O)NCC(c2cccs2)S(=O)(=O)c2ccc(F)c(C)c2)cc1 (centres undefined) 1.12%
CCOc1ccccc1C(=O)N1CCN(CCc2ccccn2)CC1 -9.99%
Cc1ccc(C2=Nc3ccccc3N(CC(=O)Nc3ccccc3C)C(=O)C2)cc1C 10.7%
Cc1ccc(CNC(=O)NC2COc3ccccc3C2)cc1 (centres undefined) -2.53%
Cc1c(Cl)cccc1NC(=O)Cn1nc(C(F)(F)F)c2c1CCC2 -17.1%
Cc1ccc(N2CCn3c2nc2c3c(=O)n(CCCc3ccccc3)c(=O)n2C)cc1 -4.57%
COc1ccc(OC)c(CNC(=O)c2ccccc2NC(=O)c2nsc3ccccc23)c1 0%
Cc1cc(C)c(NC(=O)Cn2c(=O)n(CCc3ccccc3)c(=O)c3ccccc32)c(C)c1 2.63%
Cc1cc(C)n(-c2nc3ccccc3nc2Nc2cccc(C(=O)NCCc3ccccc3)c2)n1 -12.2%
COc1ccc(CCNC(=O)c2c(C)oc3nc(C)nc(N4CCOCC4)c23)cc1OC -2.8%
Cc1ccc(NC(=O)C2CCCN(S(=O)(=O)c3cccc4cccnc34)C2)c(Br)c1 (centres undefined) 0.166%
Cc1onc(-c2ccccc2Cl)c1C(=O)Oc1ccc(Br)cc1 10.2%
Cn1cc(S(=O)(=O)N2CCCCCC2)cc1C(=O)NCc1ccc(Cl)cc1 3.29%
CC1=C(C(=O)Nc2ccccc2)C(c2cccc(O)c2)n2nc(-c3ccccc3Cl)nc2N1 (centres undefined) 0.488%
CCN(c1ccc(OC)cc1)S(=O)(=O)c1nnc(NC(=O)COc2ccc(F)cc2)s1 -4.09%
CC(C)CC(=O)NCC(c1ccc2c(c1)OCO2)N1CCN(c2ccccc2F)CC1 (centres undefined) -1.7%
Cc1cccc(-c2nc(SCC(=O)NCC3CCCO3)c3c(=O)n(C)c(=O)n(C)c3n2)c1 (centres undefined) -8.08%
Cc1ccccc1N(C)C(=O)c1noc2c1COc1ccccc1-2 -1.13%
CCOC(=O)c1ccc(NC(=O)Nc2ccc3snnc3c2)cc1 1.08%
O=C(CCn1c(=O)c2cccn2c2cccnc21)NCc1ccccc1Br -0.283%
CCOc1ccc(-c2noc(CSc3nnc(-c4ccccc4)n3-c3ccccc3)n2)cc1 2.02%
CCC(CC)C(=O)Nc1ccc(C(=O)OCc2cc(=O)n3nc(C4CC4)sc3n2)cc1 2.7%
CCC(=O)Nc1ccc(C)cc1-c1nc2ccccc2n(C(C)C(=O)Nc2ccccc2CC)c1=O (centres undefined) -11.7%
CN1C(=O)c2ccccc2Sc2ccc(NC(=O)Cc3c(F)cccc3Cl)cc21 -12%
Cc1ccc(-n2nc(C(=O)N3CCN(c4ccccc4F)CC3)c3c4ccccc4n(C)c3c2=O)cc1 -8.29%
COc1cccc(CNC(=O)CN2N=C(c3ccc(C)cc3)CCC2=O)c1 1.05%
Cc1ccc(N(C)S(=O)(=O)c2ccc3c(c2)C(C)(C)C(=O)N3C)cc1C 8.02%
O=C(NCc1ccccc1Cl)c1cccn1-c1nnc(N2CCCCC2)s1 8.04%
CCN(CC)CCCNC(=O)CCCn1c(=O)[nH]c2ccc(Br)cc2c1=O 1.98%
CC(=O)c1ccccc1NS(=O)(=O)c1cc2c(cc1C)NC(=O)CO2 -0.516%
Cc1ccc(Cl)cc1N1CCN(C(=O)c2cccn2-c2nnc(N3CCCCC3)s2)CC1 2.66%
COc1cc(Cl)ccc1OC(=O)c1cn(-c2ccccc2OC)c(=O)c2ccccc12 -0.418%

Potency, active:
CCn1c(=N)n(CCOc2ccc(Br)cc2)c2ccccc21 13.1 µM
